The record followed here is patent US20250082589A1, “PHENYLETHYLIDENEHYDRAZINE DIMERS AND METHODS OF USING SAME” (NEURAWELL THERAPEUTICS, priority 2021, published 2025).

The procedure of this series:
Batch 1830-012. UPLC chromatograms for sample 1830-012 were measured in ACN or MeOH directly after preparation. The UPLC method parameters were the same as those for PEH. FIG. 1A-C are chromatograms of sample 1830-012 obtained at different points in the reaction. FIG. 1A, top panel, is the chromatogram obtained at time “0,” and confirms the presence of PEH and the azine at [M+H]^+ 135.6 and 237.7, respectively. As the reaction proceeds, the growth of the peak corresponding to the azine increases until 35 min. FIG. 1B is the chromatogram obtained in ACN after extraction (top panel) and after drying with potassium carbonate (middle panel). In both chromatograms, the signal due to the azine decreased and peak broadening was observed. FIG. 1B, bottom panel, is the chromatogram after drying, in which the signal due to PEH decreased. The chromatograms in FIG. 1C of the resultant species were obtained after 3 days storage at room temperature and −20° C. […]
Batch 1830-007. […] The results for Fr1 after distillation are shown in FIG. 17C and FIG. 17D, with the NMR results being measured at a maximum of 40 min after distillation. PEH was detected at 26% purity, and the azine was detected at 11% purity. The results for Fr2 after distillation are shown in FIG. 17E and FIG. 17F, with the NMR results being measured at a maximum of 40 min after distillation.

`NN=CCc1ccccc1` [PEH, phenylethylidenehydrazine]: the stability on distillation result is “underwent decomposition at 160-170 °C”.
Consider `C(/Cc1ccccc1)=N\N=C\Cc1ccccc1` [azine, (1E,2E)-1,2-bis(2-phenylethylidene)hydrazine], for which the stability on distillation entry is “underwent decomposition at 160-170 °C”.
